Test results taken from article PMC4336329 (PLoS ONE, 2015).
Hit rate of the full screen: of about 310,000 compounds, about 2,200 (0.71%) showed an effect of 50% or more. The effect is printed as a negative number. Some of the results follow.

target: human ether-à-go-go-related gene (hERG) potassium channel (human, UniProt Q12809); assay: primary screen, population patch clamp on CHO cells stably expressing hERG
Sequence (Q12809 whole entry, looked up): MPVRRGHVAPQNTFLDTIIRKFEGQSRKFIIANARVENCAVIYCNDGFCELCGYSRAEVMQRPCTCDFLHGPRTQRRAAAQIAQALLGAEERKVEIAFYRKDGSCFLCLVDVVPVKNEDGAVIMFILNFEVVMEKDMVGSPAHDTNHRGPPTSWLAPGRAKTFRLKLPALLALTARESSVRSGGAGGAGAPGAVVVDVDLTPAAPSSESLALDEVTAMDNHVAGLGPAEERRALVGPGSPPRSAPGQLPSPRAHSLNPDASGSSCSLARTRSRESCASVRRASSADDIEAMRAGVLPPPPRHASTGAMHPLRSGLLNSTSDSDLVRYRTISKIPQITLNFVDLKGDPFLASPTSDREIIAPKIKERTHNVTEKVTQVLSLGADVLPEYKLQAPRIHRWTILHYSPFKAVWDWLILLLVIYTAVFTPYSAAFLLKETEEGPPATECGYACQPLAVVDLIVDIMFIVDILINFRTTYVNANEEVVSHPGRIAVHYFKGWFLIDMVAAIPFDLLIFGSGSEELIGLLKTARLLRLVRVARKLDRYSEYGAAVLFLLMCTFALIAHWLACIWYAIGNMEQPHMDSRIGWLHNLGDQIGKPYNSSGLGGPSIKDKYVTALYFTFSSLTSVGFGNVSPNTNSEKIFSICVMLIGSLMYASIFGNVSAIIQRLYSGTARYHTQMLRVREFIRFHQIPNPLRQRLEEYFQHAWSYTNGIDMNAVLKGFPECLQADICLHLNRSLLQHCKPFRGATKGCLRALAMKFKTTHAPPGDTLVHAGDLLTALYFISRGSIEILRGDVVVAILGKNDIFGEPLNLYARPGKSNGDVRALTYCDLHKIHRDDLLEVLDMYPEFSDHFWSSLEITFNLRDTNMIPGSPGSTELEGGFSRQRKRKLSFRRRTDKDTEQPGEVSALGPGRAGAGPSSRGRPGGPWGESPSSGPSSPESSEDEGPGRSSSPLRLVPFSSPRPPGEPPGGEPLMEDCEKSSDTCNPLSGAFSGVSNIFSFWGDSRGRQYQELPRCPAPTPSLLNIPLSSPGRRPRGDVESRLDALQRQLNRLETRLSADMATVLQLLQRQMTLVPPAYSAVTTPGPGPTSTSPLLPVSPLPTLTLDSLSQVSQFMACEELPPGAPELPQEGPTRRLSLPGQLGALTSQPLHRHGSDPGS

Structure (SMILES)	hERG current change (%, negative = inhibition) at 1uM [%]
Cc1nc2ccccc2c(=O)n1-c1ccc(F)cc1F	5.91
COc1ccccc1OC[C@H](O)CO	20
C=CCOc1ccc(CNc2ccc(NC(=O)CCC)cc2)cc1OCC	11.8
CN1CCN(C2=C(Cl)C(=O)N(Cc3ccccc3)C2=O)CC1	-4.55
Cc1ccc(NCc2nc3ccccc3n2C)cc1	2.32
COc1ccc(OC)c(S(=O)(=O)Nc2ccccc2O)c1	9.14
N#C/C(=C\c1ccncc1)c1ccc(NC(N)=O)cc1	14.7
Cc1cc(C(=O)CSc2nnc(N)s2)c(C)n1-c1c(C)n(C)n(-c2ccccc2)c1=O	9.5
COc1cc(C2NC(=S)NC3=C2C(=O)CCC3)ccc1O (stereo not drawn)	17
c1cncc(-c2ccc3[nH]ccc3c2)c1	7.75
CC(C)COC(=O)c1ccccc1OC(=O)c1ccncc1	6.72
O=C(Nc1ccccc1C(F)(F)F)c1cnccn1	15.4
Cc1cccc(-n2cnc(C(=O)NNC(=S)Nc3ccccc3)c2)n1	16.8
COc1ccc(C2CC(c3ccccc3)=NN2C(=O)COC(=O)c2nc3nccc(C)n3n2)cc1 (stereo not drawn)	27.9
Cc1ccc(CN2CCN(C(=O)c3ccncc3)CC2)cc1.O=C(O)C(=O)O	8.52
CCOc1ccccc1/C=C(\C#N)C(=O)Nc1cccc(C(=O)O)c1	-3.93
CCOc1ccc(N(CC(=O)NCc2cccs2)S(=O)(=O)c2c(C)noc2C)cc1	13.1
CC(C)Cn1c(=S)[nH]c2cc(Cl)ccc21	6.32
N/C(=N\OC(=O)CCCOc1ccc(Cl)cc1Cl)c1ccncc1	14.3
N=C1C(c2ccccc2)=C(O)CN1c1ccccc1	4.72
O=C(O)/C=C/C(=O)Nc1ccc(OCc2ccccc2)cc1	11.3
Cc1onc(-c2ccccc2Cl)c1C(=O)Nc1ccc(-c2cn3cccnc3n2)cc1	16
COc1ccc(CNC(=O)CSc2nc(-c3ccccc3)cc(-c3cccs3)c2C#N)cc1	6.45

Structure (SMILES)	hERG current change (%, negative = inhibition) at 1uM [%]
CCOC(=O)C1(CCCc2ccccc2)CCN(C(=O)CN2C(=O)CSC2=O)CC1	7.4
CCCN1CCN(CCCNC(=O)C2CCCN(c3nnc(-n4cccc4)s3)C2)CC1 (stereo not drawn)	4.31
Cc1ccc(C(CNS(=O)(=O)c2ccccc2)N2CCN(C)CC2)cc1 (stereo not drawn)	-2.24
CN(C)c1nc2sc3c(c2c(=O)n1C)CC(C)(C)OC3	13.6
O=C(CN1CCN(Cc2ccccc2)CC1)N/N=C/C=C/c1ccco1	-7.18
O=C(Cn1cnc2ccccc21)N/N=C/C(Br)=C/c1ccccc1	10.7
N/C(=N\OC(=O)c1ccc2ccccc2c1)c1ccncc1	-7.21
Cn1c(=O)c2c(nc(CN3CCc4ccccc4C3)n2Cc2ccccc2F)n(C)c1=O	1.59
Cc1nc2cc(C(=O)NCCN3CCOCC3)ccc2n1-c1ccc(F)cc1F	3.34
COC(=O)c1cc2c(C)cc3ccc(C)cn3c-2c1C(=O)OC	12
Cc1[nH]c2ccccc2c1C(c1ccccn1)c1c(C)[nH]c2ccccc12	9.39
O=C(N/N=C/c1ccc(Cl)cc1)c1cc(-c2cccnc2)nc2ccccc12	1.83
C=CCOc1cccc(CNn2nnnc2N)c1	14.6
CC(=O)CC1OC(=O)C(Br)=C1NCc1ccccc1 (stereo not drawn)	-5.1
COc1ccccc1C(=O)N/N=C(\C)c1ccc(NC(=O)Cc2ccccc2)cc1	14.8
Cc1ccc(NC(=O)C2CCCO2)c(Br)c1 (stereo not drawn)	11.3
COc1ccc(NC(=O)C(=O)NNC(=O)COc2ccc(OC)cc2)cc1	23.2
Cc1ccc2nc3c(cc(C(=O)NCCc4ccccc4)c(=N)n3CCCN3CCOCC3)c(=O)n2c1	-77.5
CSCCC(NC(=O)COc1ccccc1)C(=O)N1CCCCC1 (stereo not drawn)	-3.54
COc1ccc(COc2cc(-c3cccc(OC)c3)nc3ccc(NC(=O)c4ccccc4)cc23)cc1	16.8
CNC(=O)NCCN1CCCC1=O	4.47
CC1Cc2ccccc2N1C(=O)CN1CCC(C(N)=O)CC1 (stereo not drawn)	0.0723
COC(=O)C1C(c2ccccc2)C(C(=O)O)C1c1ccccc1 (stereo not drawn)	22.2

Structure (SMILES)	hERG current change (%, negative = inhibition) at 1uM [%]
COc1ccccc1C(=O)NCCC(=O)NNC(=O)C1COc2ccccc2O1 (stereo not drawn)	4.7
COc1ccc(OC)c(CCNC(=O)Cn2nc(C)c3c(C)n(-c4ccccc4)nc3c2=O)c1	6.87
Brc1ccc(N=C(c2ccccc2)c2ccncc2)cc1	13.5
O=[N+]([O-])c1cc(/C=N/N2CCCCC2)ccc1Cl	7.23
CC(=O)N1CCN(CC(=O)Nc2c(Cl)cccc2Cl)CC1.O=C(O)C(=O)O	15.1
COc1cc(S(=O)(=O)N2CCN(c3ccccn3)CC2)ccc1Br	8.5
C=CCOc1ccc(/C=C(\C#N)C(=O)Nc2ccccn2)cc1	12.5
O=C(CCN1C(=O)CSc2ccccc21)Nc1ccc(OC(F)(F)F)cc1	5.18
O=C(NCc1ccco1)c1cnc2sccn2c1=O	11.1
CCn1nc(C)c(CN2CCCC(CNS(=O)(=O)c3ccc(OC)cc3)C2)c1C (stereo not drawn)	-7.5
Cc1ccccc1C(=O)Nc1ccccc1C(=O)N/N=C\c1ccco1	9.4
Cc1ccc(OCC(=O)Nc2ccc(S(=O)(=O)Nc3cc(C)nc(C)n3)cc2)c(C)c1	-1.77
CC(=O)c1ccc(N(C(=O)CNC(=O)c2ccco2)C(C(=O)NC2CCCC2)c2cccnc2)cc1 (stereo not drawn)	5.13
CSCCC(NC(=O)c1ccccc1)C(=O)OCC(=O)c1ccc[nH]1 (stereo not drawn)	2.6
C/C(=C\C(=O)c1ccc(C)cc1)NCc1ccc(F)cc1	6.77
NCCc1cnc[nH]1	4.13
COc1cc(/C=C/C(=O)NCCn2c(C)cc3ccccc32)cc(OC)c1OC	14.8
COc1ccc(NC(=O)C2CCC(CNC(=O)[C@@H]3Cc4ccccc4CN3)CC2)cc1 (stereo partly drawn)	18.9
CC(C)Sc1nc2sc3c(c2c2nnc(SCC(=O)NCc4ccco4)n12)CCCC3	-2.96
CCc1cc(C(=O)NC2CCCc3c2cnn3-c2cccc(C)c2C)n(C)n1 (stereo not drawn)	10.9
Cn1cc(CNC(=O)C2CCC(=O)N(Cc3cccc(C(F)(F)F)c3)C2)cn1 (stereo not drawn)	1
CC(C)c1ccc(NC2CCCN(C(=O)c3cnsn3)C2)cc1 (stereo not drawn)	13.4
NC(=O)Cc1ccc(C(=O)c2ccccc2F)s1	13.8

Structure (SMILES)	hERG current change (%, negative = inhibition) at 1uM [%]
Clc1ccc(SCCn2cncn2)cc1	0.689
NC(=O)c1ccsc1NC(=O)COC(=O)Cc1n[nH]c(=O)c2ccccc12	20
Fc1cccc(-c2c(-c3ccccc3)ncc3cc(F)ccc23)c1	15.8
CCn1cc(CN2CCN(C)C(CCO)C2)c2ccccc21 (stereo not drawn)	5.94
Cc1cc(CNC(=O)C(C)Cc2ccccc2)nn1C (stereo not drawn)	4.63
S=C(NN=C1CCCCCC1)Nc1ccc(Cl)cc1	11
NC(=O)COc1ccc(=O)n(-c2ccccc2)n1	7.7
NC(=O)CC[C@@H]1NC(=O)[C@H](CO)NC(=O)c2cc([N+](=O)[O-])cc(I)c2NCCC[C@@H](C(N)=O)NC(=O)[C@H](Cc2ccc(O)cc2)NC1=O	5.75
Cn1c(=O)c2c(ncn2CCCl)n(C)c1=O	20.2
O=C(N/N=C/c1ccc(-c2cccc([N+](=O)[O-])c2)o1)c1ccccc1O	15.2
COc1ccc(CNC(=S)N2CCN(S(=O)(=O)c3cccc(F)c3)CC2)cc1	12.5
COc1ccc(C(=O)OC2CCN(c3ncc(C(F)(F)F)cc3Cl)CC2)cc1	0.371
Cc1cccc(CC(=O)N2CCC(N3CCC(C(=O)N4CCOCC4)CC3)CC2)c1	9.98
O=C(NCCNC(=O)c1cc(OCC(F)(F)F)ccc1OCC(F)(F)F)Nc1ccccc1	-15
N#CCSc1nccc(-c2cc(Cl)sc2Cl)n1	0.129
COc1ccc2oc(C(=O)Nc3nc(C)cs3)c(C)c2c1	6
O=C(Nc1ccc(-n2ccnc2P(=O)(O)c2ccccc2)cc1)c1ccccc1Cl	13.2
OC1(c2ccc(OC(F)F)cc2)CSC(=Nc2cccnc2)N1C1CC1 (stereo not drawn)	-4.46
CC(C)NC(=O)Cn1nnc(-c2ccc(Cl)cc2)n1	-0.749
Cc1cccc(N2CCN(C(=O)c3cnn4c(C(F)F)cc(-c5ccccc5)nc34)CC2)c1C	-2.25
Oc1ccccc1/C=N/NC(=S)NCCc1ccccc1	13.4
